Here are results for 79 sequences from the supplement of paper PMC10126150.

For the series, the system named is ATP. The series can be described thus: switch fluorescence ratio, 500 uM ATP over buffer (Cy3 cluster intensity, sum of 5 cycles each) (fold (ratio)); higher = stronger signal-on switching upon ATP binding; sequences stand for … in TCGTCGGCAGCGTCAGATGTGTATAAGAGACAGTTTTTTTTTTTTTTTTTTTTTTTTT…TC. As to conditions: aptamer strand: ATP DNA aptamer (quencher-CACCTGGGGGAGTATTGCGGAGGAAGG + anchor), 100 nM annealed; ATP concentration: 500 uM; one replicate. In outline:
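The fluorescence ratio divides summed target-cycle Cy3 intensity by summed buffer-cycle Cy3 intensity for each cluster and is averaged per switch-domain sequence. Cy3-labelled switching-strand clusters on a modified Illumina MiSeq flow-cell were annealed to 100 nM quencher-labelled ATP aptamer, then imaged in selection buffer and again after 15 min with 500 uM ATP at 22 °C. Five such cycles were run, with NaOH stripping and re-annealing between them, and clusters outside 100-1000 RFU were excluded.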

Sequences with one replicate were seen in a single cluster, so their values are uncertain.
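Note: ATP exposure 15 min at 22 °C before imaging.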

Take CGGCAGATTG: the switch fluorescence ratio is 1.01. The value for ACATAATGTC was 1.08; that for GTACCTATAG was 1.01. The value for TAAATTTCAG was 0.938; that for ATCGGCTCCG was 1.04. CTAAATTGGT: the switch fluorescence ratio worked out at 0.998. The value for GAGGCAGCCA was 1; that for GTGAAGCACG was 1.01; that for GTTATCAATT was 1.06. On to GACCACCCCA, for which the switch fluorescence ratio is 1.07. The value for CAAGGTTGGG was 1.1; that for CCATAGTACT was 1.18. For the sequence TATTAGGCGG, the switch fluorescence ratio came to 1.02.

Regarding CCTTGAGATT, the switch fluorescence ratio amounted to 1.01. The value for TTGAAAGGTA was 0.958; that for TGGAGGGTAA was 0.985; that for CGCCAGTGGG was 1.05.

Consider CTTTGTAAC, for which the switch fluorescence ratio is 1.09.

As for CGAACAAAGC, the switch fluorescence ratio came to 1.03. For ATTCCTATAA, the switch fluorescence ratio turned out to be 0.962. The value for CGTCCATCGT was 1.01; that for CAAGTCCGGC was 1.04; that for CTTGGTATAG was 0.982. Turning to CCTTACCAGT, the switch fluorescence ratio turned out to be 1.1.

Take GCATAAAGAT: the switch fluorescence ratio amounted to 1.01. Under GAGACTCTGT stands 0.998; under TCGGAACTCA, 1.03. AGAAGGCCGA: the switch fluorescence ratio was 0.972. Take ATGTGTATG: the switch fluorescence ratio is 1.01. TTATTTATGG: the switch fluorescence ratio came to 0.99. GGTCTTCATA: the switch fluorescence ratio turned out to be 0.999. The value for TAGTCGGCGG was 0.972; that for TATAAGACCG was 1.05; that for GGCCCAGTTC was 0.999. In the case of GGACCGGATG, the switch fluorescence ratio turned out to be 0.966. The value for CCGATGTTTA was 1.14. On to AGTTAATATT, for which the switch fluorescence ratio was 0.969. GGAGTGAAGT: the switch fluorescence ratio is 0.968. GCGAGGGTA: the switch fluorescence ratio worked out at 0.991. Under AAGAGGTTT stands 0.973; under GGGAAGGAGA, 0.967. The value for TATCGCGGTA was 0.983.

Turning to CAGTCTGAGT, the switch fluorescence ratio was 0.973.

As to CGGGTCTAAG, the switch fluorescence ratio came to 0.992.

As for AGAGTTGTAG, the switch fluorescence ratio was found to be 1.03.

As for CAGCAGACAG, the switch fluorescence ratio stood at 0.996. In the case of GCTGTTTCA, the switch fluorescence ratio came to 1.01. With TGCTTTATAG, the switch fluorescence ratio is 1.02. For the sequence ACATATGCTT, the switch fluorescence ratio stood at 1. The value for GCAGTAGATA was 0.983. Consider GGTTGTCTGG, for which the switch fluorescence ratio was 0.995. AGGCCTAGAA: the switch fluorescence ratio amounted to 1.04. The value for CGGGATGGAC was 1.03. Under TTCCGTCTTA stands 1. The value for ATCCTTAAGT was 1.06; that for GGGAATCACG was 0.999; that for TGGTATTGGA was 1.03. For ATTGCGTGTC, the switch fluorescence ratio came to 1.04. As for AGGGATCATT, the switch fluorescence ratio is 0.946. Under TAGCGTTCGT stands 0.961; under CAATGGCAAT, 1.25; under GCGTTACGCT, 1.02. For TCTATGTGGT, the switch fluorescence ratio was found to be 0.964. The value for CAACCCCACA was 1.16; that for GTCTAAGTTT was 0.977; that for TGTTGCTTGA was 0.991.

Turning to GGCTGCCTC, the switch fluorescence ratio was 1.03. Take CCTGCACTCG: the switch fluorescence ratio was 1.17. The value for ATTGCGGCAT was 0.971; that for ATGATAACGT was 1.01. For the sequence TCGCTCCCGA, the switch fluorescence ratio worked out at 1.12. The value for ACAGCGTATG was 1. Consider TCTTTGGCGA, for which the switch fluorescence ratio was determined as 1.03.

On to TTGTGCCGCA, for which the switch fluorescence ratio came to 1.

Take AGCAGGGCCA: the switch fluorescence ratio is 1.02. ATTCCGAGC: the switch fluorescence ratio amounted to 1.68. Under AATCACGGGA stands 0.954.

In the case of ACTTTCGCT, the switch fluorescence ratio stood at 1.07. Under AAGTGGCATT stands 0.994.
